# Measurements: publication PMC4336329 (PLoS ONE, 2015)
# The campaign covered roughly 310,000 compounds. About 14,000 (4.5%) showed an effect of 50% or more. Effects have a minus sign here. The list shows a part of the results.
# Biological target: human ether-à-go-go-related gene (hERG) potassium channel (human, UniProt Q12809)
# Test: primary screen, population patch clamp on CHO cells stably expressing hERG
# 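Further: peak tail current of the secondary pulse compared with the same well before compound.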
# human ether-à-go-go-related gene (hERG) potassium channel, sequence (Q12809 whole entry, looked up): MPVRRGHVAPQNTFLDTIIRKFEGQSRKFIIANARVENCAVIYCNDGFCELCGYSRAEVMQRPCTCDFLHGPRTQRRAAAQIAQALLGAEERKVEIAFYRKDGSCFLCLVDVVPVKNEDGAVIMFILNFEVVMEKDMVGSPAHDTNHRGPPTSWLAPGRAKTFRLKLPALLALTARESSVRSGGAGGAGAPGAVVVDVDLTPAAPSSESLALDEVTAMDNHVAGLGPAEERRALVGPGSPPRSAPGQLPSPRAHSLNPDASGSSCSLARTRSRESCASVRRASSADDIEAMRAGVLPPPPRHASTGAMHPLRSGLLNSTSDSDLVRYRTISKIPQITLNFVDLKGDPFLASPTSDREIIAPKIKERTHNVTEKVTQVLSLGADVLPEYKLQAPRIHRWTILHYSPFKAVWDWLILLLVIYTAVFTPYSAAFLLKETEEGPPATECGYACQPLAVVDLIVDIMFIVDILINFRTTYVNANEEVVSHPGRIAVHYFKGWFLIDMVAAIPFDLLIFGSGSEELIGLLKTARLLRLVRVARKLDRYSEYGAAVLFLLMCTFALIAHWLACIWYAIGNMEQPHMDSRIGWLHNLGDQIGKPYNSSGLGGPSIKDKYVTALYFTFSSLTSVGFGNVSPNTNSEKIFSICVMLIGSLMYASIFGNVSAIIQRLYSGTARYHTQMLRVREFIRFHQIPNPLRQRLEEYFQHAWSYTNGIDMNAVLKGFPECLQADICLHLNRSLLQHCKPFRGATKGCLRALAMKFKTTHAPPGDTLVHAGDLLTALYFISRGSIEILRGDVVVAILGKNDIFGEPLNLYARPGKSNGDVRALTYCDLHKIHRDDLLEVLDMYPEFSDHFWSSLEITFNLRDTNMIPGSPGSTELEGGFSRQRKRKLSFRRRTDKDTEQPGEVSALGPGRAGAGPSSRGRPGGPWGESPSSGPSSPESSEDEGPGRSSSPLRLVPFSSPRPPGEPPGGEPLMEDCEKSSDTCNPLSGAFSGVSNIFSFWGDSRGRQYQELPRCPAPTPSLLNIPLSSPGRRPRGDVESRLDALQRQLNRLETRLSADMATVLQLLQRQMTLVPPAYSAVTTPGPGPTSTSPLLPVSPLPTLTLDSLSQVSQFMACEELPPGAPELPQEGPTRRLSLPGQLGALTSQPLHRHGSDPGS
row,Structure (SMILES),"hERG current change (%, negative = inhibition) at 10uM [%]"
1,O=C(Nc1nnc(-c2ccc(F)cc2)o1)c1ccc(S(=O)(=O)N2CCOCC2)cc1,-6.82
2,O=C(c1cc2ccccc2s1)N1CCN(c2ccccn2)CC1,-11.5
3,COc1cc(S(=O)(=O)N2CCN(C)CC2)ccc1Cl,16.4
4,COc1cc([N+](=O)[O-])cc(/C=N/NC(=O)C(O)(c2ccccc2)c2ccccc2)c1O,5.68
5,Cc1ccc([N+](=O)[O-])cc1NC(=S)NCCc1ccccc1,-5.31
6,CCOC(=O)Cn1nc(C)cc1NC(=O)c1cccnc1,10
7,Cc1ccc(S(=O)(=O)n2[nH]c(=O)c(CCO)c2C)cc1,8.83
8,CCOC(=O)Cn1nc(-c2ccccc2)ccc1=O,-32
9,O=C(c1ccc(CS(=O)Cc2ccccc2Cl)o1)N1CCN(c2ccccn2)CC1 (stereo not drawn),-5.66
10,CC1CN(c2nc3ccccn3c(=O)c2/C=C(\C#N)C(N)=O)CC(C)O1 (stereo not drawn),21.1
11,O=C(Nc1cccnc1)c1cc(-c2ccc(Br)cc2)nc2ccccc12,-2.53
12,CS(=O)(=O)N(CC(=O)Nc1ccc(C(N)=O)cc1)C1CCCCC1,5.95
13,COc1ccc(Cl)cc1N(C(C)=O)c1nc(C)cc(C)c1C#N,12.1
14,COc1ccc(S(=O)(=O)NCc2cccnc2)cc1NC(=O)c1ccccc1,-3.99
15,COc1cc(/C=N/NC(=O)CCN2CCN(Cc3ccccc3)CC2)cc(OC)c1OC,-29.2
16,CSCCC(NC(=O)COc1ccccc1)C(=O)NCC1COc2ccccc2O1 (stereo not drawn),-16.4
17,O=C(NC12CC3CC(CC(C3)C1)C2)N1CCN(C2CCCCC2)CC1,-30.9
18,Cc1cccc(C(=O)NC2CC3CCCC(C2)N3S(=O)(=O)c2ccccc2)c1 (stereo not drawn),-77.2
19,COc1ccc(C(=O)CSc2nnc(NC(=O)C3CC(=O)N(c4cccc(OC)c4)C3)s2)cc1 (stereo not drawn),15.6

row,Structure (SMILES),"hERG current change (%, negative = inhibition) at 10uM [%]"
1,CCN1CCN(C(=S)NC(CC(=O)c2ccccc2)c2ccccc2)CC1 (stereo not drawn),-28.4
2,CCOc1ccc(OCCNC2CCCC2)cc1,-20.5
3,O=C(Nc1ccc(S(=O)(=O)Nc2nccs2)cc1)c1cccc(F)c1,-7.36
4,COC(=O)Cc1ccc(NC(=S)NCc2ccccc2)cc1,0.941
5,C=CCC(NCc1ccccc1)c1ccc(C)o1.Cl (stereo not drawn),1.05
6,Cc1ccc(/C=C2\Oc3c(ccc(O)c3CN3CCN(CCO)CC3)C2=O)cc1,-10.9
7,COc1ccccc1N1CCN(C(=O)CCC(=O)O)CC1,0.0357
8,Cc1c(O)ccc(-c2n[nH]c(C(=O)O)c2-c2nc3ccccc3s2)c1O,10.9
9,CC(C)(C)c1cc(CCC(=O)NCc2ccccn2)cc(C(C)(C)C)c1O,-10.1
10,CCOC(=O)CSC1=C(C#N)C(c2ccco2)C(C(=O)OCc2ccccc2)=C(C)N1 (stereo not drawn),2.75
11,COc1ccc2nc(C)cc(NCCN3CCOCC3)c2c1,15.4
12,CCN1C(=O)c2cccc3c(S(=O)(=O)Nc4c(C)n(C)n(-c5ccccc5)c4=O)ccc1c23,-2.58
13,CCc1ccc(-c2cc(C)no2)cc1S(=O)(=O)N1CCN(c2ccccc2OC)CC1,16
14,O=S(=O)(CCN1CCOCC1)c1ccc(Cl)cc1,12.6
15,CCn1c(-c2cccnc2Cl)nc2ccccc21,-6.21
16,O=C(COC(=O)c1ccc(O)cc1O)NC(=O)NCc1ccccc1,-6.4
17,Cn1cc(/C=N/NC(=O)COc2ccccc2[N+](=O)[O-])c2ccccc21,23.3
18,CC(=NCc1ccc2c(c1)OCO2)c1c(O)n(-c2ccccc2)c(=O)[nH]c1=O,-11.8
19,Cc1ccc(C2=NOC(C)(c3nnc(-c4ccccc4)o3)C2)cc1 (stereo not drawn),-12.3

row,Structure (SMILES),"hERG current change (%, negative = inhibition) at 10uM [%]"
1,NS(=O)(=O)c1ccc(CCNC(=O)C(=O)NCC2OCCN2C(=O)c2ccc3c(c2)OCO3)cc1 (stereo not drawn),6.42
2,COc1ccc(-c2cc(C(=O)N3CCN(c4ccc(F)cc4)CC3)no2)cc1,21.1
3,Cc1noc(C)c1C(=O)Nc1sc2c(c1C(N)=O)CCCCC2,-0.683
4,O=P(O)(O)CCP(=O)(c1ccccc1)c1ccccc1,9.46
5,COc1cccc(-c2csc(N3CCN(C(=S)Nc4ccccc4Cl)CC3)n2)c1,0.373
6,Cc1ccccc1OP(N)(=O)Oc1ccccc1C,21.8
7,COc1cccc(CN(C)C(=O)CCNC(=O)c2ccc(Br)cc2)c1,0.786
8,CCCCOC(=O)c1cccnc1,8.53
9,CCCCN(C(=O)c1cccc(S(=O)(=O)N2CCN(C)CC2)c1)c1c(N)n(CCC)c(=O)[nH]c1=O,1.67
10,COc1ccc(C(=O)C2CCCN(Cc3ccc4nonc4c3)C2)c(OC)c1 (stereo not drawn),-66.7
11,C=CC(C)(O)CCC=C(C)C (stereo not drawn),13.2
12,O=C(O)CSc1ncccc1C(=O)O,-53.7
13,O=C(O)/C=C\c1ccccc1Oc1cccc(Cl)c1,7.3
14,O=C(NC(=S)Nc1ccc(S(=O)(=O)Nc2ncccn2)cc1)c1cccc(Br)c1,24.7
15,O=C(Cc1ncc(C(F)(F)F)cc1Cl)NNc1cccc(F)n1,28.9
16,COc1ccc(NC(=O)CCN2CC(C)OC(C)C2)c(OC)c1.Cl (stereo not drawn),13.2
17,C/C(=N/NC(=O)CSc1nc2ccccc2s1)c1ccncc1,-24
18,Cc1ccc(C(C)C)c(OCc2nn(CC(=O)c3ccc(Cl)cc3)c3[n+]2CCCCC3)c1.[Br-],-73.3
19,O=C1COc2ccc(S(=O)(=O)NCCc3ccc(Cl)cc3)cc2N1,-8.83
